This is one part of the list. These are noisy estimates, calculated here from bound and input reads.
Target: T1, Pho4 (S. cerevisiae) (UniProt P07270)
T1 sequence: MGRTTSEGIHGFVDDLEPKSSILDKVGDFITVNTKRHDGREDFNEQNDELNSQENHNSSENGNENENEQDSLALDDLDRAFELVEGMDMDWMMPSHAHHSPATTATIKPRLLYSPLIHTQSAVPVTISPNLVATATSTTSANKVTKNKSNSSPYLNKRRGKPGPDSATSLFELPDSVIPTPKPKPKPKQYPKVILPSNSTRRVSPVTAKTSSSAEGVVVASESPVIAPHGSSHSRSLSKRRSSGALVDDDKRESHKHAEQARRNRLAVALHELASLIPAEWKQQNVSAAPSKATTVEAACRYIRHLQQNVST
Test: relative binding free energy (BET-seq); higher = weaker binding
Details: reference: library average

Sequence | relative binding free energy [kcal/mol]
CGGCTCACGTGGATGG | 0.25
TAGTGCACGTGTGTGC | 0.08
GGATGCACGTGGGTAT | -0.07
GTTGACACGTGTTGAG | 0.04
ACTGGCACGTGAAGGT | 0.2
TGAGTCACGTGATAAT | 0.15
GGGGGCACGTGTGCGC | -0.11
TTCGGCACGTGTGATG | 0.09
CTTCTCACGTGTCGGG | 0.22
TTATCCACGTGTTAGG | 0.14
TGATTCACGTGTCTTT | 0.17
TTTGACACGTGATGCG | 0.04
TTACACACGTGGGTGG | -0.19
TAAGACACGTGGTCGT | -0.08
ACTGTCACGTGGTCTT | 0.1
GGGGACACGTGGAGCG | 0.04
GGGGCCACGTGTTGGT | -0.04
TTGGACACGTGGAATC | 0.32
TGTTTCACGTGTTGCC | 0.14
GGGCTCACGTGGCGGT | 0.2
CGGGTCACGTGTTGGT | 0.19
TGTATCACGTGAATGA | 0.37
CATTGCACGTGCTGGG | -0.02
TTTCACACGTGGGTGT | -0.19
GTTAGCACGTGTGCGA | -0.05
AGCGGCACGTGTTTAT | -0.04

Sequence | relative binding free energy [kcal/mol]
AGCGTCACGTGCTTGT | 0.01
GGGGCCACGTGATTAG | 0.06
GTTTGCACGTGTAAAG | 0.2
TTTGACACGTGTAAGG | 0.11
TGATTCACGTGGGTTG | 0.1
CATGGCACGTGTGGCG | -0.18
GGGTACACGTGATTGA | 0.12
GTGGTCACGTGAAGCT | 0.21
GCTTTCACGTGTATGT | 0.25
GGAAGCACGTGTAGGC | -0.05
GGGGGCACGTGCGTTG | -0.1
ATTATCACGTGTAATT | 0.17
TTTTCCACGTGTGATT | 0.13
TCGAACACGTGGGGCG | -0.02
ATAAGCACGTGCGTGT | -0.1
GTTGGCACGTGGGGTG | -0.09
AAAGGCACGTGGCAAG | -0.08
TGTGCCACGTGTGGGG | -0.04
TGTGTCACGTGGTTCA | 0.04
TAGTCCACGTGAGGGT | 0.17
GAGTGCACGTGAAGAG | 0.28
AGCGTCACGTGGTTCG | -0.02
TGTGACACGTGTTATA | -0.02
AGATTCACGTGGGAAG | 0.39
GGAGGCACGTGAGCTG | 0.08
TGATGCACGTGTCGTT | -0.07

Sequence | relative binding free energy [kcal/mol]
TGGTTCACGTGTTTTG | 0.19
TTGGGCACGTGACAGA | -0.05
GGGTACACGTGGCGCA | 0.01
GAGGGCACGTGAGTTT | 0.26
ATGAACACGTGGACGG | 0.13
CTTGACACGTGTTGTA | -0.06
ATTAGCACGTGGAGGT | -0.21
GCTCGCACGTGATGGT | 0.06
TTTCACACGTGTAAGT | 0.1
ATAGCCACGTGGGAAG | 0.07
ATGTGCACGTGGACGT | 0
TAGGGCACGTGTACTG | -0.2
CAATGCACGTGTTGGG | -0.04
ATAATCACGTGGTTTG | 0.08
ATTTTCACGTGTATAG | 0.34
ATATACACGTGTTTAA | -0.15
AGCGTCACGTGAATGG | 0.34
TGTGCCACGTGACTGG | 0.01
ATATGCACGTGTAAAG | -0.08
GGGGACACGTGGAGGT | 0.19
ACGGCCACGTGGGGTT | -0.12
ATGCACACGTGGAGTT | 0.07
CGTATCACGTGAGTGA | 0.42
TATTGCACGTGGGTTC | -0.15
AAGTTCACGTGGTTTG | 0.33
ATAGTCACGTGGTACG | -0.02

Sequence | relative binding free energy [kcal/mol]
CAGTTCACGTGATAGT | 0.37
ATAGACACGTGTGTAG | 0.05
GTAGTCACGTGAGTAG | 0.26
GTTCTCACGTGAGTTA | 0.44
GTTAGCACGTGTTTCG | -0.07
CAGTACACGTGGTGCG | 0.07
TATTGCACGTGCGTTA | -0.16
TTCGACACGTGGGTGG | -0.07
TGCATCACGTGTTAAG | 0.19
TGGTGCACGTGATTGT | 0.08
TCTGCCACGTGTGTGT | -0.13
TAAGTCACGTGGATAG | 0
TATTTCACGTGTCTGG | 0.25
GTACTCACGTGGATGG | 0.33
GTTAACACGTGTGTGG | 0.14
GAGCACACGTGAGGGG | 0.17
GGGGACACGTGCTGGC | -0.05
AGACGCACGTGGGGAG | -0.24
GTTATCACGTGGTTAC | 0.18
ATGGTCACGTGTGATG | 0.25
AGGTGCACGTGAGATT | 0.16
AAATTCACGTGTTTGT | 0.23
AGATGCACGTGTGCTT | 0.07
AATAGCACGTGAATTG | 0.32
AATATCACGTGTTATT | 0.16
TAATGCACGTGGATAT | -0.1

Sequence | relative binding free energy [kcal/mol]
CTGGGCACGTGGCGGC | -0.18
TCGTGCACGTGCAGGG | -0.11
TGGCGCACGTGTGTTT | -0.01
ATAGGCACGTGAGTAT | -0.12
GCTTGCACGTGGTCTG | -0.12
TTGCGCACGTGGTTAC | -0.1
ATTAGCACGTGGCTTA | -0.22
ATGGTCACGTGGCTGA | -0.06
GTACGCACGTGAGGTA | 0.15
TGTCACACGTGTTGAT | 0.05
TGCGGCACGTGTGCTG | -0.09
GAATTCACGTGTGGTG | 0.43
TGTTTCACGTGAAAAG | 0.48
ATGGGCACGTGAATAG | 0.15
GTGAACACGTGGAATG | 0.07
TGAAACACGTGGTGAT | -0.09
AGGTTCACGTGTCGTG | 0.38
AGGATCACGTGTAGGC | 0.18
GGGGTCACGTGCAGCT | 0.08
TGGTTCACGTGTGGAC | 0.26
ATGAACACGTGGCGGT | 0
TCTGGCACGTGGTGAG | -0.17
TGTGGCACGTGGAGGG | -0.1
CGTGTCACGTGGTATG | -0.14
TTGCACACGTGCTGGG | 0.01
TGGACCACGTGGAGAG | 0.05

Sequence | relative binding free energy [kcal/mol]
GGTCGCACGTGTGCGG | 0.01
AGTGGCACGTGCCAGG | -0.29
AAAGGCACGTGAGGAG | 0.07
TATGTCACGTGGAATA | 0.06
AGTGTCACGTGAGCAG | 0.14
AGCGACACGTGATGTT | 0.22
GTCAACACGTGTGGCT | 0.26
TATTTCACGTGTGATT | 0.22
TGTTCCACGTGATTTT | 0.09
AGGTACACGTGTAATT | 0.18
AACTACACGTGGAGGT | 0.14
TAGAGCACGTGTTCGG | -0.11
TGGGACACGTGTGAAA | 0.09
TTGCGCACGTGTGGAG | -0.05
TGGGACACGTGGGTGC | -0.14
ATGAGCACGTGGTCAT | -0.15
TCTTACACGTGTTGGA | 0.12
TGGGTCACGTGGATCG | 0.1
TGTTGCACGTGACCGG | -0.12
GAGCACACGTGGGGGA | 0.17
TATAGCACGTGGGCGC | -0.17
TTTCTCACGTGTGCTA | 0.23
ATTGGCACGTGTAGCT | -0.17
ATTTTCACGTGAAGAA | 0.31
AAGTTCACGTGTGCTG | 0.18
GTGCTCACGTGGGTCT | 0.13

Sequence | relative binding free energy [kcal/mol]
AGGGGCACGTGTCCGT | -0.21
AAGCGCACGTGGGGCA | -0.22
CGTGGCACGTGCAGGG | -0.14
TCTTTCACGTGGCTTG | 0.29
TTAAGCACGTGTAGGT | -0.11
CAGTGCACGTGGTGAG | -0.27
ACTGGCACGTGTGGTC | -0.09
TGAATCACGTGGTGGC | 0.17
TGAGACACGTGTATGT | 0.03
TGAGCCACGTGTAGGG | -0.06
TGGAGCACGTGTGTTG | 0.02
TGCTGCACGTGGAGGA | -0.11
AGTTTCACGTGGCCGG | 0.24
AGATACACGTGGTGGG | 0.01
GTAACCACGTGGTGTG | -0.04
GAGGGCACGTGGAGCT | -0.07
TTCATCACGTGTTATA | 0.08
CCTATCACGTGTTGGT | 0.17
GAGGTCACGTGTGTTT | 0.17
GTTAACACGTGTTAAG | 0.1
TGATGCACGTGTGGAT | 0.17
TGTAACACGTGGAGTG | 0.02
TATCGCACGTGTGGAG | 0.15
TGGGCCACGTGATGTG | 0.05
GGGTGCACGTGGTCGT | -0.17
TAGAGCACGTGTTTGT | -0.08

Sequence | relative binding free energy [kcal/mol]
TGGTTCACGTGACAGT | 0.32
GTAGGCACGTGTCATA | 0.03
ATGTGCACGTGTGCAA | -0.08
AGGTGCACGTGGGCAA | -0.31
CGTTTCACGTGTTTGT | 0.27
ACTTTCACGTGTCGGT | 0.16
ATTGGCACGTGAAGTA | 0.1
GATCGCACGTGATAGG | 0.23
TTAGGCACGTGCGTTG | -0.1
CTGGACACGTGTTGTA | -0.03
GTAATCACGTGGTTTA | 0.21
TTGAACACGTGAGGCG | 0.25
GGCGTCACGTGAGCTG | 0.35
GAGGCCACGTGGTTGA | -0.04
TCATACACGTGTTGGT | 0.1
GGACGCACGTGAGAGT | 0.24
AATCTCACGTGTGTGG | 0.29
TTTACCACGTGATTTG | 0.22
GAGTTCACGTGGGAAG | 0.23
TTGTTCACGTGAGCTT | 0.36
GTAGGCACGTGATAGT | 0.11
TGGATCACGTGTGATT | 0.35
TGACGCACGTGGAAGG | 0.08
GTAGGCACGTGCTGGC | -0.1
AGTCGCACGTGCGGTT | -0.18
CATTGCACGTGGTGTG | -0.1

Sequence | relative binding free energy [kcal/mol]
TGTGCCACGTGGGAGT | -0.26
TTTAGCACGTGTATGC | -0.02
GCTTGCACGTGGCGGG | -0.03
GGTAACACGTGTAAGT | 0.11
TGGTCCACGTGTCTTG | 0.13
AAGTTCACGTGTGAGA | 0.31
ATGTTCACGTGAAATT | 0.32
TTATACACGTGCAGGT | 0.04
GTTTTCACGTGTAATA | 0.28
GATATCACGTGATTGG | 0.17
TTACTCACGTGTTGTG | 0.16
TGCGACACGTGTAAGT | 0.3
CTGGGCACGTGGGGCA | -0.19
CGCGTCACGTGGGAAG | -0.05
AAATGCACGTGGGTTA | -0.1
GCTTTCACGTGTGGAT | 0.23
GGCATCACGTGTGTGA | 0.22
GGGTTCACGTGATGAC | 0.38
TATTGCACGTGAATTA | 0.12
TTCGTCACGTGCATGG | 0.02
TTCTGCACGTGATAAG | 0.18
GTAGACACGTGGGCGG | 0.03

— the BET-seq Pho4 binding data (Le et al. 2018)
